# Source: the supplement of paper PMC8728848
# The other results are listed elsewhere or left out.
# How the values were obtained:
# Assay in all cases: glycan array binding signal (z-score within array); higher = stronger binding
# Details in all cases: glycan notation: IUPAC condensed, linker removed
# [1] = target: Neu5Ac(a2-3)Gal(b1-4)GlcNAc(b1-3)[Neu5Ac(a2-3)Gal(b1-4)GlcNAc(b1-6)]GalNAc
# How it was run: (§1)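 The Consortium for Functional Glycomics database supplied 3228 glycan arrays, of which those lacking an available protein sequence were dropped. The binding signal, a within-array Z-score, was averaged across arrays of the same protein sequence and across linkers. Negative scores can be read as non-binding.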
# [2] = target: Neu5Ac(a2-3)Gal(b1-4)GlcNAc(b1-6)GalNAc
# How it was run: as §1
# [3] = target: Neu5Ac(a2-3)Gal(b1-4)GlcNAc(b1-6)[Gal(b1-3)]GalNAc
# How it was run: as §1
# [4] = target: Neu5Ac(a2-3)Gal(b1-4)GlcNAc(b1-6)[Neu5Ac(a2-3)Gal(b1-3)]GalNAc
# How it was run: as §1
# [5] = target: Neu5Ac(a2-3)Gal(b1-4)GlcNAc6S
# How it was run: as §1
# [6] = target: Neu5Ac(a2-3)Gal(b1-4)[Fuc(a1-3)]GlcNAc
# How it was run: as §1
# [7] = target: Neu5Ac(a2-3)Gal(b1-4)[Fuc(a1-3)]GlcNAc(b1-2)Man
# How it was run: as §1
# [8] = target: Neu5Ac(a2-3)Gal(b1-4)[Fuc(a1-3)]GlcNAc(b1-3)Gal
# How it was run: as §1
# [9] = target: Neu5Ac(a2-3)Gal(b1-4)[Fuc(a1-3)]GlcNAc(b1-3)Gal(b1-4)GlcNAc
# How it was run: as §1
# [10] = target: Neu5Ac(a2-3)Gal(b1-4)[Fuc(a1-3)]GlcNAc(b1-3)Gal(b1-4)[Fuc(a1-3)]GlcNAc(b1-3)Gal(b1-4)[Fuc(a1-3)]GlcNAc
# How it was run: as §1
# [11] = target: Neu5Ac(a2-3)Gal(b1-4)[Fuc(a1-3)]GlcNAc(b1-3)GalNAc
# How it was run: as §1
# [12] = target: Neu5Ac(a2-3)Gal(b1-4)[Fuc(a1-3)]GlcNAc(b1-6)[Gal(b1-3)]GalNAc
# How it was run: as §1
# [13] = target: Neu5Ac(a2-3)Gal(b1-4)[Fuc(a1-3)]GlcNAc(b1-6)[Neu5Ac(a2-3)Gal(b1-3)]GalNAc
# How it was run: as §1
# [14] = target: Neu5Ac(a2-3)Gal(b1-4)[Fuc(a1-3)]GlcNAc6S
# How it was run: as §1
# [15] = target: Neu5Ac(a2-3)Gal6S(b1-4)GlcNAc
# How it was run: as §1
# [16] = target: Neu5Ac(a2-3)Gal6S(b1-4)[Fuc(a1-3)]GlcNAc
# How it was run: as §1
# Neu5Ac(a2-3)GalNAc = target: Neu5Ac(a2-3)GalNAc
# How it was run: as §1
# [17] = target: Neu5Ac(a2-3)GalNAc(b1-4)GlcNAc
# How it was run: as §1
# [18] = target: Neu5Ac(a2-3)[GalNAc(b1-4)]Gal(b1-4)Glc
# How it was run: as §1
# [19] = target: Neu5Ac(a2-3)[GalNAc(b1-4)]Gal(b1-4)GlcNAc
# How it was run: as §1
# [20] = target: Neu5Ac(a2-3)[GalNAc(b1-4)]Gal(b1-4)GlcNAc(b1-3)GalNAc
# How it was run: as §1
# [21] = target: Neu5Ac(a2-3)[Neu5Ac(a2-6)]GalNAc
# How it was run: as §1
# Neu5Ac(a2-6)Gal = target: Neu5Ac(a2-6)Gal
# How it was run: as §1
# [22] = target: Neu5Ac(a2-6)Gal(b1-3)GlcNAc(b1-3)[Gal(b1-4)GlcNAc(b1-6)]Gal(b1-4)Glc
# How it was run: as §1
# Neu5Ac(a2-6)Gal(b1-4)Glc = target: Neu5Ac(a2-6)Gal(b1-4)Glc
# How it was run: as §1
# [23] = target: Neu5Ac(a2-6)Gal(b1-4)GlcNAc
# How it was run: as §1
# [24] = target: Neu5Ac(a2-6)Gal(b1-4)GlcNAc(b1-2)Man
# How it was run: as §1
# [25] = target: Neu5Ac(a2-6)Gal(b1-4)GlcNAc(b1-2)Man(a1-3)Man(b1-4)GlcNAc(b1-4)GlcNAc
# How it was run: as §1
# [26] = target: Neu5Ac(a2-6)Gal(b1-4)GlcNAc(b1-2)Man(a1-3)[Gal(b1-4)GlcNAc(b1-2)Man(a1-6)]Man(b1-4)GlcNAc(b1-4)GlcNAc
# How it was run: as §1
# [27] = target: Neu5Ac(a2-6)Gal(b1-4)GlcNAc(b1-2)Man(a1-3)[GlcNAc(b1-2)Man(a1-6)]Man(b1-4)GlcNAc(b1-4)GlcNAc
# How it was run: as §1
# [28] = target: Neu5Ac(a2-6)Gal(b1-4)GlcNAc(b1-2)Man(a1-3)[GlcNAc(b1-4)][Neu5Ac(a2-6)Gal(b1-4)GlcNAc(b1-2)Man(a1-6)]Man(b1-4)GlcNAc(b1-4)GlcNAc
# How it was run: as §1
binder,measurement,setting,value
"Siglec-9 (Homo sapiens), Q9Y336 (protein) MLLLLLPLLWGRERAEGQTSKLLTMQSSVTVQEGLCVHVPCSFSYPSHGWIYPGPVVHGYWFREGANTDQDAPVATNNPARAVWEETRDRFHLLGDPHTKNCTLSIRDARRSDAGRYFFRMEKGSIKWNYKHHRLSVNVTALTHRPNILIPGTLESGCPQNLTCSVPWACEQGTPPMISWIGTSVSPLDPSTTRSSVLTLIPQPQDHGTSLTCQVTFPGASVTTNKTVHLNVSYPPQNLTMTVFQGDGTVSTVLGNGSSLSLPEGQSLRLVCAVDAVDSNPPARLSLSWRGLTLCPSQPSNPGVLELPWVHLRDAAEFTCRAQNPLGSQQVYLNVSLQSKATSGVTQGVVGGAGATALVFLSFCVIFVVVRSCRKKSARPAAGVGDTGIEDANAVRGSASQGPLTEPWAEDSPPDQPPPASARSSVGEGELQYASLSFQMVKPWDSRGQEATDTEYSEIKIHR",glycan array binding signal (z-score),[1],0.569
same,glycan array binding signal (z-score),[2],0.247
same,glycan array binding signal (z-score),[3],0.033
same,glycan array binding signal (z-score),[4],0.207
same,glycan array binding signal (z-score),[5],2.21
same,glycan array binding signal (z-score),[6],1.14
same,glycan array binding signal (z-score),[7],14.8
same,glycan array binding signal (z-score),[8],0.641
same,glycan array binding signal (z-score),[9],-0.033
same,glycan array binding signal (z-score),[10],-0.007
same,glycan array binding signal (z-score),[11],-0.122
same,glycan array binding signal (z-score),[12],-0.125
same,glycan array binding signal (z-score),[13],-0.088
same,glycan array binding signal (z-score),[14],16.8
same,glycan array binding signal (z-score),[15],-0.043
same,glycan array binding signal (z-score),[16],-0.311
same,glycan array binding signal (z-score),Neu5Ac(a2-3)GalNAc,-0.183
same,glycan array binding signal (z-score),[17],0.468
same,glycan array binding signal (z-score),[18],-0.131
same,glycan array binding signal (z-score),[19],-0.277
same,glycan array binding signal (z-score),[20],0.047
same,glycan array binding signal (z-score),[21],-0.051
same,glycan array binding signal (z-score),Neu5Ac(a2-6)Gal,0.007
same,glycan array binding signal (z-score),[22],-0.316
same,glycan array binding signal (z-score),Neu5Ac(a2-6)Gal(b1-4)Glc,0.192
same,glycan array binding signal (z-score),[23],0.498
same,glycan array binding signal (z-score),[24],-0.006
same,glycan array binding signal (z-score),[25],0.17
same,glycan array binding signal (z-score),[26],-0.118
same,glycan array binding signal (z-score),[27],-0.331
same,glycan array binding signal (z-score),[28],-0.121
